Measured values published in PMC6459820, “Determination of oligomerization state of Drp1 protein in living cells at nanomolar concentrations” (Scientific Reports, 2019).

Biological target: the molecule itself
Assay: fluorescence correlation spectroscopy (FCS); in the cytosol of living HeLa cells 24 h after transfection, 36 °C, low expression; oligomer size from the diffusion coefficient by the length-scale dependent viscosity model (Eq. 1); KD: tetramer to dimers, calculated for each cell from the FCS amplitudes (Eq. 2); excess of endogenous untagged Drp1, one subunit tagged in each oligomer

B1: EGFP-tagged Drp1 mutant G363D (natural protein)
chain: not shown
notes: Dynamin-related protein 1 (Drp1), isoform 1 (transcript variant 1), cDNA from Origene (RG221708), with G363D made by QuikChange site-directed mutagenesis; In pmEGFP-C1 (Addgene 36412), as m1; also called EGFP-G363D-Drp1; G363D-Drp1; source: HeLa (Kyoto) cells, transfected, measured in the cytosol of living cells
stoichiometry N: 2

B2: EGFP-tagged Drp1 mutant C505A (natural protein)
chain: not shown
notes: Dynamin-related protein 1 (Drp1), isoform 1 (transcript variant 1), cDNA from Origene (RG221708), with C505A made by QuikChange site-directed mutagenesis; In pmEGFP-C1 (Addgene 36412), as m1; also called EGFP-C505A-Drp1; C505A-Drp1; source: HeLa (Kyoto) cells, transfected, measured in the cytosol of living cells
stoichiometry N: 2
